# Source: article PMC9911399, “Two distinct binding modes provide the RNA-binding protein RbFox with extraordinary sequence specificity”
# Substitutions are numbered along the chain they refer to; changes in the protein carry UniProt numbers. The list shows a part of the results.
# T1: RBFOX1 RRM RbFoxmut (Fox-RRM*) (Homo sapiens, UniProt Q9NWB1 109-208, R118D;E147R;N151S;E152T)
# T1 sequence: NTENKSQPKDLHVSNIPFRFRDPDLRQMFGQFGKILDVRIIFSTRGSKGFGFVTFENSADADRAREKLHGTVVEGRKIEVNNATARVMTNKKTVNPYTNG
# B1: GGCACUC (DNA:RNA)
# RNA: GGGAGACCGGAAUUCAGAUUGUCCGGCACUCUUAAAUCCCGUCGUAGCCACCA
# DNA 1: CAATCTGAATTCCGGTCTCCC
# DNA 2: TGGTGGCTACGACGGGATT
# B2: AUCCGAA (DNA:RNA)
# RNA: B1 RNA with G25A, G26U, A28C, C29G, U30A, C31A
# DNA 1: CAATCTGAATTCCGGTCTCCC
# DNA 2: TGGTGGCTACGACGGGATT
# B3: UAAGCUC (DNA:RNA)
# RNA: B1 RNA with G25U, G26A, C27A, A28G
# DNA 1: CAATCTGAATTCCGGTCTCCC
# DNA 2: TGGTGGCTACGACGGGATT
# B4: ACUAGCG (DNA:RNA)
# RNA: B1 RNA with G25A, G26C, C27U, C29G, U30C, C31G
# DNA 1: CAATCTGAATTCCGGTCTCCC
# DNA 2: TGGTGGCTACGACGGGATT
# B5: UCCGCGA (DNA:RNA)
# RNA: B1 RNA with G25U, G26C, A28G, U30G, C31A
# DNA 1: CAATCTGAATTCCGGTCTCCC
# DNA 2: TGGTGGCTACGACGGGATT
# B6: GGAAGAC (DNA:RNA)
# RNA: B1 RNA with C27A, C29G, U30A
# DNA 1: CAATCTGAATTCCGGTCTCCC
# DNA 2: TGGTGGCTACGACGGGATT
# B7: AUACACU (DNA:RNA)
# RNA: GGGAGACCGGAAUUCAGAUUGUCCAUACACUUUAAAUCCCGUCGUAGCCACCA
# DNA 1: CAATCTGAATTCCGGTCTCCC
# DNA 2: TGGTGGCTACGACGGGATT
# B8: ACAAAAC (DNA:RNA)
# RNA: B7 RNA with U26C, C28A, C30A, U31C
# DNA 1: CAATCTGAATTCCGGTCTCCC
# DNA 2: TGGTGGCTACGACGGGATT
# B9: GUUGGAU (DNA:RNA)
# RNA: B7 RNA with A25G, A27U, C28G, A29G, C30A
# DNA 1: CAATCTGAATTCCGGTCTCCC
# DNA 2: TGGTGGCTACGACGGGATT
# B10: AACUUUG (DNA:RNA)
# RNA: B1 RNA with G25A, G26A, A28U, C29U, C31G
# DNA 1: CAATCTGAATTCCGGTCTCCC
# DNA 2: TGGTGGCTACGACGGGATT
# B11: UGCAUAC (DNA:RNA)
# RNA: B1 RNA with G25U, C29U, U30A
# DNA 1: CAATCTGAATTCCGGTCTCCC
# DNA 2: TGGTGGCTACGACGGGATT
# B12: UUAGUUA (DNA:RNA)
# RNA: B7 RNA with A25U, C28G, A29U, C30U, U31A
# DNA 1: CAATCTGAATTCCGGTCTCCC
# DNA 2: TGGTGGCTACGACGGGATT
# B13: ACUCGAA (DNA:RNA)
# RNA: B7 RNA with U26C, A27U, A29G, C30A, U31A
# DNA 1: CAATCTGAATTCCGGTCTCCC
# DNA 2: TGGTGGCTACGACGGGATT
# B14: UGACAGA (DNA:RNA)
# RNA: B7 RNA with A25U, U26G, C30G, U31A
# DNA 1: CAATCTGAATTCCGGTCTCCC
# DNA 2: TGGTGGCTACGACGGGATT
# B15: CCUUUGC (DNA:RNA)
# RNA: B1 RNA with G25C, G26C, C27U, A28U, C29U, U30G
# DNA 1: CAATCTGAATTCCGGTCTCCC
# DNA 2: TGGTGGCTACGACGGGATT
# B16: CGAAGGC (DNA:RNA)
# RNA: B1 RNA with G25C, C27A, C29G, U30G
# DNA 1: CAATCTGAATTCCGGTCTCCC
# DNA 2: TGGTGGCTACGACGGGATT
# B17: UCCAGGU (DNA:RNA)
# RNA: B1 RNA with G25U, G26C, C29G, U30G, C31U
# DNA 1: CAATCTGAATTCCGGTCTCCC
# DNA 2: TGGTGGCTACGACGGGATT
# B18: UUUGCAG (DNA:RNA)
# RNA: B7 RNA with A25U, A27U, C28G, A29C, C30A, U31G
# DNA 1: CAATCTGAATTCCGGTCTCCC
# DNA 2: TGGTGGCTACGACGGGATT
# B19: UACUAUC (DNA:RNA)
# RNA: B1 RNA with G25U, G26A, A28U, C29A
# DNA 1: CAATCTGAATTCCGGTCTCCC
# DNA 2: TGGTGGCTACGACGGGATT
# B20: UCGGCGU (DNA:RNA)
# RNA: B7 RNA with A25U, U26C, A27G, C28G, A29C, C30G
# DNA 1: CAATCTGAATTCCGGTCTCCC
# DNA 2: TGGTGGCTACGACGGGATT
# B21: UCUGCGU (DNA:RNA)
# RNA: B7 RNA with A25U, U26C, A27U, C28G, A29C, C30G
# DNA 1: CAATCTGAATTCCGGTCTCCC
# DNA 2: TGGTGGCTACGACGGGATT
# B22: GGCGAUG (DNA:RNA)
# RNA: B1 RNA with A28G, C29A, C31G
# DNA 1: CAATCTGAATTCCGGTCTCCC
# DNA 2: TGGTGGCTACGACGGGATT
# B23: GUGUGAA (DNA:RNA)
# RNA: B7 RNA with A25G, A27G, C28U, A29G, C30A, U31A
# DNA 1: CAATCTGAATTCCGGTCTCCC
# DNA 2: TGGTGGCTACGACGGGATT
# B24: UACCUGA (DNA:RNA)
# RNA: B7 RNA with A25U, U26A, A27C, A29U, C30G, U31A
# DNA 1: CAATCTGAATTCCGGTCTCCC
# DNA 2: TGGTGGCTACGACGGGATT
# B25: UAUGAUU (DNA:RNA)
# RNA: B7 RNA with A25U, U26A, A27U, C28G, C30U
# DNA 1: CAATCTGAATTCCGGTCTCCC
# DNA 2: TGGTGGCTACGACGGGATT
# B26: GUGGGUC (DNA:RNA)
# RNA: B1 RNA with G26U, C27G, A28G, C29G
# DNA 1: CAATCTGAATTCCGGTCTCCC
# DNA 2: TGGTGGCTACGACGGGATT
# B27: AUCGCUG (DNA:RNA)
# RNA: B1 RNA with G25A, G26U, A28G, C31G
# DNA 1: CAATCTGAATTCCGGTCTCCC
# DNA 2: TGGTGGCTACGACGGGATT
# B28: ACCACCC (DNA:RNA)
# RNA: B1 RNA with G25A, G26C, U30C
# DNA 1: CAATCTGAATTCCGGTCTCCC
# DNA 2: TGGTGGCTACGACGGGATT
# B29: UCGGAGG (DNA:RNA)
# RNA: B7 RNA with A25U, U26C, A27G, C28G, C30G, U31G
# DNA 1: CAATCTGAATTCCGGTCTCCC
# DNA 2: TGGTGGCTACGACGGGATT
# B30: AAGCUAU (DNA:RNA)
# RNA: B7 RNA with U26A, A27G, A29U, C30A
# DNA 1: CAATCTGAATTCCGGTCTCCC
# DNA 2: TGGTGGCTACGACGGGATT
# B31: AUUUCAG (DNA:RNA)
# RNA: B7 RNA with A27U, C28U, A29C, C30A, U31G
# DNA 1: CAATCTGAATTCCGGTCTCCC
# DNA 2: TGGTGGCTACGACGGGATT
# Target: T1, RBFOX1 RRM RbFoxmut (Fox-RRM*)
# Assay: EMSA; HiTS-Eq, 1 nM pool, 10 min; buffer printed only for the single-RNA assays: 10 mM Tris pH 7.5, 150 mM NaCl, 3.4 mM EDTA, 0.001% NP-40, 30 C
# Details: tags: His6 N-terminal (pET28a); label: 5' 32P
# Summary of the method: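 Purified RbFox RRM (wild type or mutant) was equilibrated for 10 min in 50 µL with 1 nM of a 5′-radiolabelled pool of RNA with 7 randomized nucleotides, its flanks annealed to DNA oligonucleotides, across increasing protein concentrations. Free RNA was separated by 8% native PAGE, excised, reverse-transcribed, PCR-barcoded and sequenced on an Illumina HiSeq 2500. Relative association constants came from read-count changes of each variant against the control reaction, normalised to the cognate motif.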
row,Binder,binding signal
1,B1,0.053 KA relative to UGCAUGU
2,B2,0.104 KA relative to UGCAUGU
3,B3,0.0457 KA relative to UGCAUGU
4,B4,0.12 KA relative to UGCAUGU
5,B5,0.071 KA relative to UGCAUGU
6,B6,0.0498 KA relative to UGCAUGU
7,B7,0.0951 KA relative to UGCAUGU
8,B8,0.101 KA relative to UGCAUGU
9,B9,0.0856 KA relative to UGCAUGU
10,B10,0.0853 KA relative to UGCAUGU
11,B11,0.161 KA relative to UGCAUGU
12,B12,0.142 KA relative to UGCAUGU
13,B13,0.103 KA relative to UGCAUGU
14,B14,0.0658 KA relative to UGCAUGU
15,B15,0.109 KA relative to UGCAUGU
16,B16,0.0756 KA relative to UGCAUGU

row,Binder,binding signal
1,B17,0.119 KA relative to UGCAUGU
2,B18,0.0931 KA relative to UGCAUGU
3,B19,0.079 KA relative to UGCAUGU
4,B20,0.1 KA relative to UGCAUGU
5,B21,0.128 KA relative to UGCAUGU
6,B22,0.404 KA relative to UGCAUGU
7,B23,0.132 KA relative to UGCAUGU
8,B24,0.0659 KA relative to UGCAUGU
9,B25,0.0734 KA relative to UGCAUGU
10,B26,0.246 KA relative to UGCAUGU
11,B27,0.11 KA relative to UGCAUGU
12,B28,0.0531 KA relative to UGCAUGU
13,B29,0.115 KA relative to UGCAUGU
14,B30,0.102 KA relative to UGCAUGU
15,B31,0.119 KA relative to UGCAUGU
